# Assay results: the supplement of paper PMC12217912
# This is one part of the list. Sequences were assembled here from the parent chain. Inactive controls read about 0.05.
# B1: TEV protease; numbered along this chain (parent)
# chain: MGESLFKGPRDYNPISSSICHLTNESDGHTTSLYGIGFGPFIITNKHLFRRNNGTLVVQSLHGVFKVKDTTTLQQHLVDGRDMIIIRMPKDFPPFPQKLKFREPQREERICLVTTNFQTKSMSSMVSDTSCTFPSGDGIFWKHWIQTKDGQCGSPLVSTRDGFIVGIHSASNFTNTNNYFTSVPKNFMELLTNQEAQQWVSGWRLNADSVLWGGHKVFMVKPEEPFQPVKEATQL
# Variants of: B1
# Assay: raw area under fraction-flipped curve 0-4 h after induction (AUC4h, not background-subtracted), DNA-recorder readout of cleavage of the substrate (dimensionless); higher = more cleavage of the substrate by the protease variant
# Details: temperature: 34 °C; time window: 0-4 h after rhamnose induction
# 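Further: Bxb1 expression induced with 0.2% (w/v) L-rhamnose at OD600 near 0.5, cultures sampled hourly, flipped fraction per protease–substrate barcode pair counted by paired-end Illumina sequencing.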
Variant,area with substrate CNLYFQS,area with substrate DNLYFQS,area with substrate FNLYFQS,area with substrate HNLYFQS,area with substrate INLYFQS,area with substrate KNLYFQS,area with substrate LNLYFQS,area with substrate MNLYFQS,area with substrate PNLYFQS,area with substrate QNLYFQS,area with substrate SNLYFQS,area with substrate TNLYFQS,area with substrate VNLYFQS,area with substrate WNLYFQS,area with substrate YNLYFQS,area with substrate GNLYFQS,area with substrate NNLYFQS,area with substrate RNLYFQS
MGESLFKGPRDYNPISSSICHLTNESDGHTTSLYGIGFGPFIITNKHLFRRNNGTLVVQSLHGVFKVKDTTTLQQHLVDGRDMIIIRMPKDFPPFPQKLKFREPQREERICLVTTNFQTKSMSSMVSDTSCTFPSGDGIFWKHWIQTKDGQCGSPLVSTRDGFIVGIHSASNFTNTNNYFTSVPKNFMEHLTNQEAQQWVSGWRLNADSVLWGGHKVFMVKPEEPFQPVKEATQL [L190H],0.0662,0.0843,0.0476,0.0595,0.0594,0.0771,0.0633,0.0542,0.0646,0.0669,0.0651,0.0611,0.07,,,,,
MGESLFKGPRDYNPISSSICHLTNESDGHTTSLYGIGFGPFIITNKHLFRRNNGTLVVQSLHGVFKVKDTTTLQQHLVDGRDMIIIRMPKDFPPFPQKLKFREPQREERICLVTTNFQTKSMSSMVSDTSCTFPSGDGIFWKHWIQTKDGQCGSPLVSTRDGFIVGIHSASNFTNTNNYFTSVPKPFMELLTNQEAQQWVSGWRLNADSVLWGGHKVFMVKPEEPFQPVKEATQL [N186P],0.0619,0.0794,0.0478,0.0328,0.0528,,0.0262,0.0681,0.0551,,,0.0742,,,,,,
MGESLFKGPRDYNPISSSICHLTNESDGHTTSLYGIGFGPFIITNKHLFRRNNGTLVVQSLHGVFKVKDTTTLQQHLVDGRDMIIIRMPKDFPPFPQKLKFREPQREERICLVTTNFQTKSMSSMVSDTSCTFPSGDGIFWKHWIQTKDGQCGSPLVSTRDGFIVGIHSASNFTNTNNYFPSVPKNFMELLTNQEAQQWVSGWRLNADSVLWGGHKVFMVKPEEPFQPVKEATQL [T181P],0.0477,0.0581,,0.0573,0.0596,0.0575,0.055,0.0574,,,0.0322,0.0579,0.0551,0.0591,0.0534,,,
MGESLFKGPRDYNPISSSICHLTNESDGHTTSLYGIGFGPFIITNKHLFRRNNGTLVVQSLHGVFKVKDTTTLQQHLVDGRDMIIIRMPKDFPPFPQKLKFREPQREERICLVTTNFQTKSMSSMVSDTSCTFPSGDGIFWKHWIQTKDGQCGSPLVSTRDGFIVGIHSASNFTNTNNYFTSVPKNFEELLTNQEAQQWVSGWRLNADSVLWGGHKVFMVKPEEPFQPVKEATQL [M188E],0.0788,0.071,,0.0731,0.0674,0.0715,,,0.07,,,0.051,,0.0591,,0.0747,0.0743,
MGESLFKGPRDYNPISSSICHLTNESDGHTTSLYGIGFGPFIITNKHLFRRNNGTLVVQSLHGVFKVKDTTTLQQHLVDGRDMIIIRMPKDFPPFPQKLKFREPQREERICLVTTNFQTKSMSSMVSDTSCTFPSGDGIFWKHWIQTKDGQCGSPLVSTRDGFIVGIHSASNFTNTNNYFTSVPKNFWELLTNQEAQQWVSGWRLNADSVLWGGHKVFMVKPEEPFQPVKEATQL [M188W],0.0429,0.063,0.0606,0.0718,0.0617,0.0667,0.0567,0.0668,0.0534,,0.0588,0.0554,0.0635,0.0581,0.0683,0.0724,,
MGESLFKGPRDYNPISSSICHLTNESDGHTTSLYGIGFGPFIITNKHLFRRNNGTLVVQSLHGVFKVKDTTTLQQHLVDGRDMIIIRMPKDFPPFPQKLKFREPQREERICLVTTNFQTKSMSSMVSDTSCTFPSGDGIFWKHWIQTKDGQCGSPLVSTRDGFIVGIHSASNFTNTNNYFTSVMKNFMELLTNQEAQQWVSGWRLNADSVLWGGHKVFMVKPEEPFQPVKEATQL [P184M],0.0719,,0.0739,0.0586,0.061,,0.0515,0.0623,,,,0.0595,0.062,0.0846,0.0369,0.0518,0.0617,
MGESLFKGPRDYNPISSSICHLTNESDGHTTSLYGIGFGPFIITNKHLFRRNNGTLVVQSLHGVFKVKDTTTLQQHLVDGRDMIIIRMPKDFPPFPQKLKFREPQREERICLVTTNFQTKSMSSMVSDTSCTFPSGDGIFWKHWIQTKDGQCGSPLVSTRDGFIVGIHSASNFTNTNNYFTSVPKNFMMLLTNQEAQQWVSGWRLNADSVLWGGHKVFMVKPEEPFQPVKEATQL [E189M],0.066,0.0694,0.0427,0.0669,0.0648,0.0651,0.0623,,0.0757,,0.0545,0.0574,,0.0568,0.0636,0.0667,,0.057
MGESLFKGPRDYNPISSSICHLTNESDGHTTSLYGIGFGPFIITNKHLFRRNNGTLVVQSLHGVFKVKDTTTLQQHLVDGRDMIIIRMPKDFPPFPQKLKFREPQREERICLVTTNFQTKSMSSMVSDTSCTFPSGDGIFWKHWIQTKDGQCGSPLVSTRDGFIVGIHSASNFTNTNNYFTSVPKNFMALLTNQEAQQWVSGWRLNADSVLWGGHKVFMVKPEEPFQPVKEATQL [E189A],0.0625,0.0867,,0.0809,,0.0481,,0.0563,,,,,0.0615,0.0592,,,,
MGESLFKGPRDYNPISSSICHLTNESDGHTTSLYGIGFGPFIITNKHLFRRNNGTLVVQSLHGVFKVKDTTTLQQHLVDGRDMIIIRMPKDFPPFPQKLKFREPQREERICLVTTNFQTKSMSSMVSDTSCTFPSGDGIFWKHWIQTKDGQCGSPLVSTRDGFIVGIHSASNFTETNNYFTSVPKNFMELLTNQEAQQWVSGWRLNADSVLWGGHKVFMVKPEEPFQPVKEATQL [N175E],0.0667,0.0658,,0.0518,,0.0787,0.0504,,,,,0.037,,0.0594,0.0612,0.0631,,0.0584
MGESLFKGPRDYNPISSSICHLTNESDGHTTSLYGIGFGPFIITNKHLFRRNNGTLVVQSLHGVFKVKDTTTLQQHLVDGRDMIIIRMPKDFPPFPQKLKFREPQREERICLVTTNFQTKSMSSMVSDTSCTFPSGDGIFWKHWIQTKDGQCGSPLVSTRDGFIVGIHSASNFTRTNNYFTSVPKNFMELLTNQEAQQWVSGWRLNADSVLWGGHKVFMVKPEEPFQPVKEATQL [N175R],0.067,0.0697,,0.0426,0.0267,0.0562,,0.0679,0.0724,,0.0619,0.0565,0.0668,0.0623,0.0557,,,
MGESLFKGPRDYNPISSSICHLTNESDGHTTSLYGIGFGPFIITNKHLFRRNNGTLVVQSLHGVFKVKDTTTLQQHLVDGRDMIIIRMPKDFPPFPQKLKFREPQREERICLVTTNFQTKSMSSMVSDTSCTFPSGDGIFWKHWIQTKDGQCGSPLVSTRDGFIVGIHSASNFTNTNNYFTKVPKNFMELLTNQEAQQWVSGWRLNADSVLWGGHKVFMVKPEEPFQPVKEATQL [S182K],0.0569,0.0504,0.0554,,0.0581,0.0724,0.0633,,0.0773,,0.0491,0.0649,0.054,0.0609,0.0583,,0.0594,0.0728
MGESLFKGPRDYNPISSSICHLTNESDGHTTSLYGIGFGPFIITNKHLFRRNNGTLVVQSLHGVFKVKDTTTLQQHLVDGRDMIIIRMPKDFPPFPQKLKFREPQREERICLVTTNFQTKSMSSMVSDTSCTFPSGDGIFWKHWIQTKDGQCGSPLVSTRDGFIVGIHSASNFTNTNNYFTNVPKNFMELLTNQEAQQWVSGWRLNADSVLWGGHKVFMVKPEEPFQPVKEATQL [S182N],0.0619,0.067,,0.0523,,,0.0511,,0.0617,0.0611,0.0512,0.051,0.0503,0.076,0.0442,,0.0615,0.0617
MGESLFKGPRDYNPISSSICHLTNESDGHTTSLYGIGFGPFIITNKHLFRRNNGTLVVQSLHGVFKVKDTTTLQQHLVDGRDMIIIRMPKDFPPFPQKLKFREPQREERICLVTTNFQTKSMSSMVSDTSCTFPSGDGIFWKHWIQTKDGQCGSPLVSTRDGFIVGIHSASNFTNTNNYWTSVPKNFMELLTNQEAQQWVSGWRLNADSVLWGGHKVFMVKPEEPFQPVKEATQL [F180W],0.0529,0.117,,0.0577,,0.0631,0.0457,,0.0611,,,0.0548,,0.0701,,0.0576,0.0606,
MGESLFKGPRDYNPISSSICHLTNESDGHTTSLYGIGFGPFIITNKHLFRRNNGTLVVQSLHGVFKVKDTTTLQQHLVDGRDMIIIRMPKDFPPFPQKLKFREPQREERICLVTTNFQTKSMSSMVSDTSCTFPSGDGIFWKHWIQTKDGQCGSPLVSTRDGFIVGIHSASNFTNTNNYETSVPKNFMELLTNQEAQQWVSGWRLNADSVLWGGHKVFMVKPEEPFQPVKEATQL [F180E],0.0539,0.0349,0.0564,,0.0483,,0.0648,,0.0669,,0.0555,0.0584,,,0.0493,0.0257,,0.0777
MGESLFKGPRDYNPISSSICHLTNESDGHTTSLYGIGFGPFIITNKHLFRRNNGTLVVQSLHGVFKVKDTTTLQQHLVDGRDMIIIRMPKDFPPFPQKLKFREPQREERICLVTTNFQTKSMSSMVSDTSCTFPSGDGIFWKHWIQTKDGQCGSPLVSTRDGFIVGIHSASNFTNTNNYGTSVPKNFMELLTNQEAQQWVSGWRLNADSVLWGGHKVFMVKPEEPFQPVKEATQL [F180G],0.066,0.0668,,0.052,0.0591,0.0623,,0.0533,0.0515,,,0.0549,0.0541,0.0439,0.0565,0.0565,,
MGESLFKGPRDYNPISSSICHLTNESDGHTTSLYGIGFGPFIITNKHLFRRNNGTLVVQSLHGVFKVKDTTTLQQHLVDGRDMIIIRMPKDFPPFPQKLKFREPQREERICLVTTNFQTKSMSSMVSDTSCTFPSGDGIFWKHWIQTKDGQCGSPLVSTRDGFIVGIHSASNFTNTNNKFTSVPKNFMELLTNQEAQQWVSGWRLNADSVLWGGHKVFMVKPEEPFQPVKEATQL [Y179K],0.075,0.0582,,0.0686,,,,0.0542,,0.0475,,,,,0.0589,,,
MGESLFKGPRDYNPISSSICHLTNESDGHTTSLYGIGFGPFIITNKHLFRRNNGTLVVQSLHGVFKVKDTTTLQQHLVDGRDMIIIRMPKDFPPFPQKLKFREPQREERICLVTTNFQTKSMSSMVSDTSCTFPSGDGIFWKHWIQTKDGQCGSPLVSTRDGFIVGIHSASNFTNTNNYFTSRPKNFMELLTNQEAQQWVSGWRLNADSVLWGGHKVFMVKPEEPFQPVKEATQL [V183R],0.047,0.0587,,0.0439,0.0364,0.0473,0.0562,,,,,,,0.0399,,,0.045,
MGESLFKGPRDYNPISSSICHLTNESDGHTTSLYGIGFGPFIITNKHLFRRNNGTLVVQSLHGVFKVKDTTTLQQHLVDGRDMIIIRMPKDFPPFPQKLKFREPQREERICLVTTNFQTKSMSSMVSDTSCTFPSGDGIFWKHWIQTKDGQCGSPLVSTRDGFIVGIHSASNFTNTNNYFTSLPKNFMELLTNQEAQQWVSGWRLNADSVLWGGHKVFMVKPEEPFQPVKEATQL [V183L],0.0632,0.0673,,0.0684,,,,,0.1,,0.0557,,0.0584,0.0545,0.0528,,0.0567,0.0589
MGESLFKGPRDYNPISSSICHLTNESDGHTTSLYGIGFGPFIITNKHLFRRNNGTLVVQSLHGVFKVKDTTTLQQHLVDGRDMIIIRMPKDFPPFPQKLKFREPQREERICLVTTNFQTKSMSSMVSDTSCTFPSGDGIFWKHWIQTKDGQCGSPLVSTRDGFIVGIHSASNFTNTNNYFTSNPKNFMELLTNQEAQQWVSGWRLNADSVLWGGHKVFMVKPEEPFQPVKEATQL [V183N],0.0726,0.069,,,0.0525,,,,,0.0765,0.0624,0.0648,,,0.0504,0.0584,,
